B1: CPEB3 Ribozyme (parent)
chain: UAACAGGGGGCCACAGCAGAAGCGUUCACGUCGCAGCCCCUGUCAGAUUCUGGUGAAUCUGCGAAUUCUGCUGUAUAUCUC

Read counts are not given, so values of variants with three or more changes are uncertain.

Variants of B1 are the subject of the series. Put plainly: self-cleavage, relative activity (ratio to wild type); higher = more cleavage; in vitro, sequencing. A digest of the protocol: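 For each CPEB3 ribozyme variant, relative activity is its cleaved/total read fraction divided by the unmutated ribozyme's. Barcoded error-prone PCR libraries were transcribed by T7 RNA polymerase (5 hours, 37°C) and held in DNase I for 15 min before an EDTA stop, with cleavage occurring throughout. Template-switching reverse transcription and Illumina sequencing were used to read the RNAs. A 5-read minimum applied, and results are the mean of three batches.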
U1C A20U C37A: the self-cleavage amounted to 0.24. As to U1C A21G C39U, the self-cleavage is 0.4.

Turning to U1C A20G A77C, the self-cleavage is 0.27. To U1C A3G A45U A56U U67C belongs 0.05; to U1A U41C U76C, 1.16; to U1A U31A U60G A65G, 0.11. Consider U1A G33A A35U U51C U54A U67C, for which the self-cleavage came to 0.11.

U1A U48C A57G U69C: the self-cleavage came to 0.51. In the case of U1A U25G A28G A45U U54G A64G it was 0.05; in that of U1C A21U A47U U49C U74A A75G, 0.04; in that of U1C A15C U51C U54C U67C, 0.09. Regarding U1C A13U A20G C29A U67C C68G U76C, the self-cleavage turned out to be 0.14. To U1C A20G U41C C71A A77G U80C belongs 0.37; to U1C A13G U51A U69G U78C, 0.48. For the variant U1A U25C U43C, the self-cleavage worked out at 0.36.

With U1C A35U U74A, the self-cleavage worked out at 0.78. Consider U1C A21U C34U, for which the self-cleavage is 0.08.

In the case of U1C A21G A45C, the self-cleavage was found to be 0.21. In the case of U1C A15G U26C U48C G52U U69A it was 0.4; in that of U1A G24A U26C A28G U51A, 0.08. Regarding U1C A5G G33A A64G, the self-cleavage turned out to be 0.08.

U1A U41A U48C U60C U67C: the self-cleavage was 0.07. As for U1C A15G U26C U54C U76C, the self-cleavage stood at 0.24. With U1C A28U U43C G63C U72A U80C, the self-cleavage stood at 1.08. For the variant U1C A20G A28G U74A, the self-cleavage came out at 0.53. Take U1C A13G G16A G24A A64G: the self-cleavage turned out to be 0.12. On to U1A G9A U41G A56G U60C, for which the self-cleavage turned out to be 0.11.

With U1C A2U A5G G7A A65G U67C, the self-cleavage was found to be 0.2. In the case of U1A U43C A57U U58C U76C, the self-cleavage worked out at 0.08. With U1C A47G U80C, the self-cleavage was 1.04.

Take U1A U72A A77G: the self-cleavage stood at 0.87.

For U1C A5G U49C U58A U72A U76A, the self-cleavage came out at 0.31. To U1A U60C U76G belongs 0.09; to U1A U51C A56G G63A U78C U80C, 0.65. U1C A2G A18U A21U G22U U41A U43C: the self-cleavage was 0.07. Take U1C A56U U58A: the self-cleavage was 0.31. In the case of U1A G8A A13C, the self-cleavage came to 0.13.

Take U1C A20G A35U U69A A77G: the self-cleavage was determined as 0.06. Regarding U1A U67C U72C A75G, the self-cleavage stood at 0.27.

Regarding U1C A13G A28G C39U, the self-cleavage is 0.15. As to U1C A15C A20G A75U, the self-cleavage was 0.87. For U1C A21G A35G, the self-cleavage was found to be 1.09. In the case of U1A G8U U25C U49A U54A A64G U66C it was 0.05.

On to U1C A13U A18G C29U U43C, for which the self-cleavage was 0.08.

U1A G6U A47C U49C A64G: the self-cleavage is 0.06. As for U1A G8A U31C C81U, the self-cleavage was determined as 0.08.

For U1C A2U A35U U74C A75U, the self-cleavage was found to be 0.69. In the case of U1A G7A U58A A65G, the self-cleavage is 0.06. In the case of U1C A35G A65G A75G it was 0.97. Turning to U1A U43C A65G, the self-cleavage is 0.23. In the case of U1C A45G U69C U80C it was 0.19; in that of U1A U41A U43C, 0.2; in that of U1C A15G U26C A47C A64G G73A, 0.07. As to U1C A18G G33A U80C, the self-cleavage was 0.37. Consider U1C A21U U25C, for which the self-cleavage amounted to 0.33.

Turning to U1C A21G U31A U48C U54G A65G U78C, the self-cleavage was 0.1.

Regarding U1C A15U A20G C23U U31A U43C, the self-cleavage was 0.05.

For U1C A21U U26A, the self-cleavage stood at 0.15.

With U1C A18G A20G G22A U31C, the self-cleavage came out at 0.26.

As for U1C A35U A65G A75U, the self-cleavage stood at 0.14. On to U1A U31A C34A U49A, for which the self-cleavage was 0.13. For the variant U1C A13U U69C, the self-cleavage worked out at 0.4. U1A U60C G61C U66C: the self-cleavage was 0.15. Turning to U1C A18U U43G C62G, the self-cleavage turned out to be 0.05. As for U1C A28C A64G U67A U72C, the self-cleavage is 0.15. For U1A U31C U72C, the self-cleavage stood at 0.85.

Turning to U1C A13C C23U U49C U58C U60A U72A, the self-cleavage was 0.06.

As to U1C A2G A56G, the self-cleavage is 0.69. In the case of U1C A18G A20G U31C U72C, the self-cleavage worked out at 0.62. For the variant U1C A5U A15G A35G A47G U76G, the self-cleavage was 0.25. Take U1A U31C A47C U54C U74A: the self-cleavage was determined as 0.32.

Regarding U1A U54A A77U, the self-cleavage turned out to be 0.67. In the case of U1C A3G U51A A65G it was 0.51; in that of U1C A18G U26C A28C G33A G63A A75G, 0.04; in that of U1A U31C U60G U66C, 0.11. To U1C A28G A35G U51A U69G belongs 0.75; to U1A U49C A57U U60C U78C, 0.14; to U1A U26A U78A, 0.96. In the case of U1C A3G A20U A28G U69C, the self-cleavage came out at 0.26. As for U1C A47G A64G U67A, the self-cleavage was 0.21.

U1C A56G U60C: the self-cleavage was 0.5. In the case of U1A U43A U54C A64G, the self-cleavage was found to be 1.01. Take U1A U26C U80C: the self-cleavage is 0.55.
